Experimental data as given in PubChem BioAssay AID1460 (National Center for Advancing Translational Sciences (NCATS), 2008).
Values joined by “and” are separate entries in the source; they are usually repeats but may differ in a detail not shown here. Identical values can stand only once. Screen size: about 270,000 compounds; about 5,800 (2.1%) were called active. This list was built around the results that the source calls inconclusive (neither active nor inactive); the mix of calls is not that of the screen. The call rests on the fitted dose curve; in most records, active means well fitted inhibition curve with a large enough effect; inconclusive means small, poorly fitted or top-dose-only effect; inactive means flat fitted curve, though single readings scatter. Potencies of inconclusive entries are doubtful fits and often do not repeat.

target: Microtubule-associated protein tau (Homo sapiens) (UniProt P10636); assay: qHTS for Inhibitors of Tau Fibril Formation, Thioflavin T Binding; conditions: recombinant tau K18 P301L (four-repeat tau fragment), heparin-induced fibrillization, ThT fluorescence; series mostly up to 57.4 µM; further: nearly all actives have a fitted effect of over 55% in size
In short: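 Heparin-induced (20 uM) aggregation of recombinant human K18 P301L tau, 15 uM unlabeled with 0.24 uM labeled, pH 7 acetate buffer, 6 hr at 37 C with compound. Fibrils quantified by 30 uM ThT fluorescence after 1 hr ambient incubation.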
Potency means the concentration at half of the fitted maximal effect; tags describe the fitted curve by direction and shape.

UniProt P10636, sequence (P10636 whole entry, looked up, the tested form may be a part): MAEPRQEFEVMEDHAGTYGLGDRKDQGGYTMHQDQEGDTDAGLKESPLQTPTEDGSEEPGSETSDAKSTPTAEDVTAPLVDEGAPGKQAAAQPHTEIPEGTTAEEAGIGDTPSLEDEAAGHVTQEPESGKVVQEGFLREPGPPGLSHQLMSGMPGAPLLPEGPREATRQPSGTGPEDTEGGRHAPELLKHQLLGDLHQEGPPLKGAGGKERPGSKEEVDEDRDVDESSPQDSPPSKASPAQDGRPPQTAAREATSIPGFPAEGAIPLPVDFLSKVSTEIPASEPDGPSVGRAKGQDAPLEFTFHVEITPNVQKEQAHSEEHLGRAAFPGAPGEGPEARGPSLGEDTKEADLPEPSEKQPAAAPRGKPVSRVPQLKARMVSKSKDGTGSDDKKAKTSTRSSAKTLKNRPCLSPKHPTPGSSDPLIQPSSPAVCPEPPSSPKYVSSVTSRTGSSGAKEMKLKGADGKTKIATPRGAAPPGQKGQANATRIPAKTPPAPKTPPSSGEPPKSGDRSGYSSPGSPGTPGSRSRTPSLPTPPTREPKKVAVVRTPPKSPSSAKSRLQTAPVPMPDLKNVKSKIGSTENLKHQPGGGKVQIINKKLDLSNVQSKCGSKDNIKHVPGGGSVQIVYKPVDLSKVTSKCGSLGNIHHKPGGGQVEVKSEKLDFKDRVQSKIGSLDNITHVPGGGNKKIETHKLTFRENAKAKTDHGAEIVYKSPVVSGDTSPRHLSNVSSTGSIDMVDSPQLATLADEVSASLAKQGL

| SMILES | Potency |
| --- | --- |
| CCOC(=O)c1c(C)[nH]c(O)c1C=Nc1ccc(Cl)cc1 | inconclusive: 22.4 µM [inhibitor, single point] |
| CCOc1ccc(-c2cc(-c3nc(-c4cc(OC)c(OC)c(OC)c4)no3)[nH]n2)cc1Cl | inconclusive: 5.01 µM [inhibitor, partial curve] |
| CC(=O)Nc1ccc(NC(=O)c2ccc(COc3ccc(Cl)cc3Cl)o2)cc1 | inconclusive: 10 µM [inhibitor, partial curve] |
| COC(=O)c1ccccc1NC(=O)c1ccc2nc(Cc3ccccc3)oc2c1 | inconclusive: 28.2 µM [inhibitor, single point] |
| COC(=O)c1ccccc1NC(=O)c1nc(S(=O)(=O)Cc2cccc(C)c2)ncc1Cl | inconclusive: 14.1 µM [inhibitor, partial curve] |
| COc1cc(C2CC(=O)N(Cc3ccc(F)cc3)c3ccccc3S2)cc(OC)c1OC (stereo unspecified) | inconclusive: 20 µM [inhibitor, single point] |
| COc1cc(NC(=O)Cn2ncc(Cl)c(Cl)c2=O)c(C)cc1[N+](=O)[O-] | inconclusive: 12.6 µM [inhibitor, partial curve] |
| Cc1cc(N2CCN(C)CC2)nc2ccc(NC(=S)N3CCC4(CC3)OCCO4)cc12 | inconclusive: 31.6 µM [inhibitor, single point] |
| Cc1ccc2nc(N3CCN(c4ccccc4F)CC3)c(C=O)c(=O)n2c1 | inconclusive: 28.2 µM [inhibitor, partial curve] |
| CCCCOc1ccccc1NC(=O)CC1Nc2ccccc2NC1=O (stereo unspecified) | inconclusive: 28.2 µM [inhibitor, partial curve] |
| COc1ccc(/C=N/c2oc(-c3ccccc3)cc2C#N)cc1 | inconclusive: 15.8 µM [inhibitor, partial curve] |
| O=C(OC1CCCCC1)c1ccc2c(c1)C1C=CCC1C(C(=O)O)N2 (stereo unspecified) | inconclusive: 35.5 µM [inhibitor, partial curve] |
| COc1ccc(Br)c(C(=O)Nc2cc3c(cc2N2CCCCC2)n(C)c(=O)c(=O)n3C)c1 | inconclusive: 39.8 µM [inhibitor, single point] |
| O=C(NCc1ccccc1)c1ccc2c(c1)C(=O)N(Cc1ccncc1)C2=O | inactive |
| Cc1nc2sccn2c(=O)c1CCN1CCC(=C(c2ccc(F)cc2)c2ccc(F)cc2)CC1 | inconclusive: 28.2 µM [inhibitor, single point] and inconclusive: 14.1 µM [inhibitor, partial curve] |
| COc1ccc2[nH]c(=O)c(CNc3cc(C)ccc3C)cc2c1 | inconclusive: 17.8 µM [inhibitor, partial curve, poor fit] |
| CC1Cc2ccccc2N1C(=O)c1cccnc1 (stereo unspecified) | inactive |
| CC(C)c1ccc(NC(=O)C2CCN(c3nc(-c4ccc(C(C)C)cc4)no3)CC2)cc1 | inconclusive: 3.16 µM [inhibitor, full curve] |
| Cc1c(C(=O)N2CCC(C)CC2)c(S(=O)(=O)NCc2ccc(Br)cc2)c(C)n1C | inactive |
| Cc1ccc(N(CC(=O)N=Nc2c(O)[nH]c3ccccc23)S(C)(=O)=O)c(C)c1 | inconclusive: 35.5 µM [inhibitor, single point] |
| O=C(CCc1cn(Cc2ccccc2Cl)c2ccccc12)NC1CCCCC1 | inactive |

| SMILES | Potency |
| --- | --- |
| Cc1ccc(NC(=O)c2cn3c4c(ccc(Cl)c4c2=O)OC(C)C3)c(C)c1 (stereo unspecified) | inactive |
| CCN(CC)c1ccc(/C=N/N2CCN(Cc3ccc(Cl)cc3)CC2)c(O)c1 | inconclusive: 1.58 µM [inhibitor, full curve] |
| COc1cc(NC(=O)c2ccccc2)c(OC)cc1NC(=O)Cc1cccs1 | inconclusive: 14.1 µM [inhibitor, partial curve] |
| CCC(=O)Nc1cccc(-c2nnc(SCC(=O)NCc3ccco3)n2C)c1 | inactive |
| O=C(NCc1ccco1)C1CCCN(S(=O)(=O)c2cccc3nonc23)C1 (stereo unspecified) | inconclusive: 20 µM [inhibitor, single point] |
| O=[N+]([O-])c1ccc(N2CCN(S(=O)(=O)c3ccccc3)CC2)cc1NCC1CCCO1 (stereo unspecified) | inconclusive: 2 µM [inhibitor, full curve] |
| CC(=O)CSc1nc2ccccc2s1 | inconclusive: 28.2 µM [inhibitor, single point] |
| CCOc1ccc(-c2cnc3ccccc3n2)cc1 | inconclusive: 3.55 µM [inhibitor, partial curve, poor fit] |
| Cc1cc(=O)[nH]c(/N=C(\N)Nc2ccc3c(c2)OCCO3)n1 | inconclusive: 25.1 µM [inhibitor, single point] |
| Nc1nc(Nc2cccc(F)c2)nc(NCCO)c1[N+](=O)[O-] | inconclusive: 39.8 µM [inhibitor, single point] |
| O=C(O)C/C(=C\c1ccc(N2CCOCC2)c([N+](=O)[O-])c1)c1nc2ccccc2s1 | active: 14.1 µM |
| Nc1cc(=O)nc(SCC(=O)Nc2ccc(F)cc2)n1-c1ccccc1Cl | inactive |
| COc1ccc(Cl)cc1NC(=O)COc1cccc(-n2cnnn2)c1 | inconclusive: 17.8 µM [inhibitor, single point] |
| COc1cc(NC(=S)NCc2cccnc2)cc(OC)c1OC | inactive |
| CCCn1c2c(c(O)c(C(=O)Nc3ccc(OC)cc3)c1=O)CCCC2 | inconclusive: 6.31 µM [inhibitor, partial curve] |
| N#Cc1c(-n2ncnc2-c2ccc(Br)cc2)sc2c1CCCCC2 | inconclusive: 3.16 µM [inhibitor, full curve] |
| CSc1ccc(CNC(=O)C2CCN(c3nnc(-n4cccc4CNc4ccc(C)cc4)s3)CC2)cc1 | inconclusive: 12.6 µM [inhibitor, partial curve, poor fit] |
| CS(=O)(=O)N(CC(=O)NC1CCCC1)c1ccc2c(c1)OCCO2 | inconclusive: 3.55 µM [inhibitor, single point] |
| CC(C)c1nc(SCC(=O)N2CC(=O)Nc3ccccc32)c2ccccc2n1 | inconclusive: 25.1 µM [inhibitor, single point] |
| COc1cccc(/C=C/C(=O)c2cccc([N+](=O)[O-])c2)c1 | inconclusive: 15.8 µM [inhibitor, partial curve] |
